From PubChem BioAssay AID1460 (National Center for Advancing Translational Sciences (NCATS), 2008)
Several values for one entry are separate records, joined by “and”; a condition that tells them apart may be missing. Equal values may be shown once. Among all 270,000 compounds or so, about 5,800 (2.1%) were called active. Inconclusive results, whose numbers are uncertain, are shown with a selection of clear calls. The call rests on the fitted dose curve; in most records, active means well fitted inhibition curve with a large enough effect; inconclusive means small, poorly fitted or top-dose-only effect; inactive means flat fitted curve, though single readings scatter. A potency beside an inconclusive call is a rough fit, not a confirmed value.
Further: nearly all actives have a fitted effect of over 55% in size.
On the % scale 0 is the no-effect control and ±100 the full control effect; potency means the concentration at half of the fitted maximal effect; tags describe the fitted curve by direction and shape.

What follows are compounds tested against Microtubule-associated protein tau (Homo sapiens) (UniProt P10636) (assay: qHTS for Inhibitors of Tau Fibril Formation, Thioflavin T Binding). Conditions: recombinant tau K18 P301L (four-repeat tau fragment), heparin-induced fibrillization, ThT fluorescence; series mostly up to 57.4 µM; activity, negative = inhibition: at the top concentration.
Chain of UniProt P10636 (P10636 whole entry, looked up, the tested form may be a part): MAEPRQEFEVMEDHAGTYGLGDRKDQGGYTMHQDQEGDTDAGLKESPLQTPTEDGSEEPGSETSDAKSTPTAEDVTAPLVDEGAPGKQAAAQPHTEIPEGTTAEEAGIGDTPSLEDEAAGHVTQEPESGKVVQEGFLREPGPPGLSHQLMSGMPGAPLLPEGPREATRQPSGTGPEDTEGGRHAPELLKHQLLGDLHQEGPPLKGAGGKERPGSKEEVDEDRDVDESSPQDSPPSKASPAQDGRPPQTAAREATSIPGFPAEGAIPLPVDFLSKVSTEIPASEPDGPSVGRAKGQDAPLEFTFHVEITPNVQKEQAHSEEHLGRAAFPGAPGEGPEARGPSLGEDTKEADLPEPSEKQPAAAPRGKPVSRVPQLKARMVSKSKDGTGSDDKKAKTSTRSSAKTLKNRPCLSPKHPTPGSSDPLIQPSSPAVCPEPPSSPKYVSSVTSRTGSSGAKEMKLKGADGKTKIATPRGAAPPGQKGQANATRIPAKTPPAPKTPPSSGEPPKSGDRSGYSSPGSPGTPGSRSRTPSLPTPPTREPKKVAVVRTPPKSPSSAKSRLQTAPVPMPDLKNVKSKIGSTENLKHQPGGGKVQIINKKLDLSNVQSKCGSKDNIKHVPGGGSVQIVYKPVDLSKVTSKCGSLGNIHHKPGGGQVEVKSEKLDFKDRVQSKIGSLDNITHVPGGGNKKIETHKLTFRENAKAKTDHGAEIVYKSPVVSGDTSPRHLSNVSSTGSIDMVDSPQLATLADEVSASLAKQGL
Text: NIH Molecular Libraries Probe Production Network [MLPCN]
NIH Chemical Genomics Center [NCGC]
Assay Provider: Carlo Ballatore, University of Pennsylvania
The microtubule-associated protein tau is an abundant protein in the axons of neurons that stabilizes microtubules. With its ability to modulate microtubule dynamics, tau contributes directly or indirectly, to key structural and regulatory cellular functions. Particularly important is the influence tau exerts on axonal transport, which allows signaling molecules, trophic factors and other essential cellular constituents to travel along the axons. Under pathological conditions, tau becomes sequestered into insoluble aggregates called neurofibrillary tangles. This phenomenon is believed to have pathological consequences by promoting axonal transport deficits that ultimately lead to synaptic dysfunction and neuronal loss. To identify inhibitors of tau aggregation, a heparin-induced tau fibril formation assay was used that employed a recombinantly expressed fragment of tau, K18 (Q242-E372), bearing a P301L mutation (Gustke et al. 1994; Hong et al. 1998). This assay monitors tau fibrillization by Thioflavin T (ThT) fluorescence.
Gustke, N., B. Trinczek, et al. (1994). "Domains of tau protein and interactions with microtubules." Biochemistry 33(32): 9511-22.
Hong, M., V. Zhukareva, et al. (1998).
Li, W. and V. M. Lee (2006).
von Bergen, M., S. Barghorn, et al. (2001). "Mutations of tau protein in frontotemporal dementia promote aggregation of paired helical filaments by enhancing local beta-structure." J Biol Chem 276(51): 48165-74.
NCGC Assay Protocol Summary:
For screening, 2 uL/well human K18 P301L (15 uM unlabeled and 0.24 uM Alexa 594-labeled tau, final concentrations) in reagent buffer (100 mM sodium acetate pH 7) was dispensed into black solid 1536-well plates (Grenier) using a solenoid-based dispenser. Following transfer of 23 nL compound or DMSO vehicle by a pin tool, 2 uL/well heparin (20 uM final concentration) in reagent buffer was added and the plate centrifuged 15 s at 1000 RPM. Plates were incubated 6 hr at 37 C and then 1 uL/well ThT (30 uM final concentration) was added. After a 1 hr ambient incubation, the plates were read by an Envision (Perkin Elmer) to monitor ThT fluorescence (450/8 nm excitation and 510/23 nm emission).
Keywords: NIH Roadmap, MLPCN, MLI, MLSMR, NCGC, qHTS, tau, tauopathies, Alzheimer's disease, fibril, neurodegeneration, aggregation
`CCC(NC(=O)NCc1ccccc1)(C(F)(F)F)C(F)(F)F` was tested, and the “activity, negative = inhibition” value was inactive: -3.28%. For `O=C(N/N=C/C=C\c1ccco1)c1cccs1`, the Potency was inconclusive: 35.5 µM [inhibitor, single point]. With `O=C(COC(=O)c1cc(=O)[nH]c2ccccc12)Nc1nc(-c2cccc(Br)c2)cs1` the Potency was inconclusive: 8.91 µM [inhibitor, partial curve]. With `COCCn1c(C)cc(C2=NNC(=Nc3ccc(F)cc3)SC2)c1C` the “activity, negative = inhibition” value was inactive: -6.48%. `CC(=O)OC/C=C(C)/C=C/C=C(C)/C=C/C1=C(C)CCCC1(C)C` was tested, and the Potency was inconclusive: 35.5 µM [inhibitor, single point] and inconclusive: 8.91 µM [inhibitor, partial curve]. In the case of `CC(CCc1ccccc1)NC(=O)c1cccs1` (configuration not stated), the “activity, negative = inhibition” value is reported as inactive: -7.13%. With `COc1cccc(C2=NCCc3cc4c(cc32)OCO4)c1OC` the “activity, negative = inhibition” value was inactive: 1.81%. With `Cc1cc(C(=O)CSc2nnc(C3COc4ccccc4O3)n2C)c(C)n1-c1ccc(F)cc1` (configuration not stated) the Potency was inconclusive: 2.82 µM [inhibitor, full curve, poor fit]. In the case of `O=C(CSc1nc2cc([N+](=O)[O-])ccc2n1-c1ccccc1)NCc1ccc2c(c1)OCO2`, the “activity, negative = inhibition” value is reported as inactive: 0.304%. With `CCOC(=O)c1cccc(NC(=O)C2CCN(S(=O)(=O)c3cccs3)CC2)c1` the Potency was inconclusive: 0.891 µM [inhibitor, single point]. In the case of `CCc1nnc(NC(=O)CSc2nnc3c4ccccc4n(C)c3n2)s1`, the Potency is reported as inconclusive: 31.6 µM [inhibitor, single point]. For `CCOc1ccccc1CNC(=O)CN1C(=O)C2CCCCN2c2ccc(C(=O)N(C)C)cc21` (configuration not stated), the “activity, negative = inhibition” value was inactive: 3.15%. In the case of `COC(=O)c1ccc(NC(=O)c2c(NCc3ccc(OC)c(OC)c3)sc3c2CCCC3)cc1`, the Potency is reported as inconclusive: 14.1 µM [inhibitor, partial curve]. `CCC(=O)c1ccc(N2CCN(C(=O)COc3ccc(F)cc3)CC2)c(F)c1` was tested, and the Potency was inconclusive: 6.31 µM [inhibitor, partial curve]. `O=C(Nc1ccc2nsnc2c1)C1CC1` was tested, and the “activity, negative = inhibition” value was inactive: -7.86%. For `O=C1NC2=C(CCc3ccccc32)C(c2ccc(Br)cc2)N1` (configuration not stated), the Potency was inconclusive: 15.8 µM [inhibitor, partial curve]. For `Cc1ccc([C@@H]2C3COCC=C3C(C#N)=C(N)C2(C#N)C#N)o1` (some centres not stated), the Potency was active: 25.1 µM. `CCOC(=O)c1cnc(-n2nc(C)cc2C)nc1N(C)C` was tested, and the “activity, negative = inhibition” value was inactive: -5.15%. `COc1ccc(N=C2C(=Nc3ccc(OC)cc3)N(c3ccc(N(C)C)cc3)C(=S)N2c2ccc(OC)cc2)cc1` was tested, and the Potency was inconclusive: 3.98 µM [inhibitor, partial curve]. In the case of `COC(=O)Cc1ccc(NC(=O)c2ccc(C(C)(C)C)cc2)cc1`, the “activity, negative = inhibition” value is reported as inactive: -26%. With `C=CCn1c(-c2ccc(OC)c(OC)c2)n[nH]c1=S` the Potency was inconclusive: 17.8 µM [inhibitor, partial curve, poor fit]. With `O=C(NCc1ccco1)C(=O)NCC1OCCCN1S(=O)(=O)c1ccccc1` (configuration not stated) the “activity, negative = inhibition” value was inactive: -15.5%. For `O=C(NCc1ccco1)c1ccc2c(=O)n(-c3ccccc3)c(=S)[nH]c2c1`, the Potency was inconclusive: 35.5 µM [activator, partial curve, poor fit]. In the case of `COc1ccc(CCNC(=O)c2cc3c(=O)[nH]c4ccc(C)cc4c3s2)cc1OC`, the “activity, negative = inhibition” value is reported as inactive: -2.32%. In the case of `Cc1cnc(C(=O)Nc2ccc(N3CCOCC3)cc2)cn1`, the Potency is reported as inconclusive: 12.6 µM [inhibitor, partial curve]. In the case of `CCN(c1cccc(C(F)(F)F)c1)S(=O)(=O)c1ccc2c(c1)CCN2C(C)=O`, the “activity, negative = inhibition” value is reported as inactive: -4.54%. `CC(=O)c1cccc(NC(=O)c2cc(-c3ccc4c(c3)OCCO4)on2)c1` was tested, and the Potency was inconclusive: 0.562 µM [inhibitor, full curve]. `COc1ccc(CN(CCC(c2ccco2)C(C)C)C(C)=O)cc1OC` (configuration not stated) was tested, and the Potency was inconclusive: 3.55 µM [inhibitor, single point]. For `Cc1ccc(-c2nc(NCc3cccnc3)c3ccccc3n2)cc1`, the Potency was inconclusive: 25.1 µM [activator, partial curve]. With `CCOc1ccc(-c2cc(CCCC(=O)NCCc3ccc(OC)c(OC)c3OC)no2)cc1` the Potency was inconclusive: 1.41 µM [inhibitor, full curve]. In the case of `COc1cccc(NC(=O)NC(C)C2CC3CCC2C3)c1` (configuration not stated), the “activity, negative = inhibition” value is reported as inactive: -5.16%. In the case of `CC(=O)Nc1c(C(=O)N2CCCCCC2)cnn1-c1ccccc1Cl`, the “activity, negative = inhibition” value is reported as inactive: -7.13%. For `CC(=O)c1ccc(N2CCN(C(=O)Nc3ccc(F)cc3F)CC2)cc1`, the Potency was inconclusive: 17.8 µM [inhibitor, partial curve]. In the case of `COc1cc(C(CCN2CCCC2)c2c(OC)cc(OC)c3c(-c4ccccc4)cc(=O)oc23)cc(OC)c1OC` (configuration not stated), the Potency is reported as inconclusive: 39.8 µM [inhibitor, single point]. For `COC(=O)c1[nH]c2cccc(OC)c2c1NC(=O)CCN1CCN(c2cccc(Cl)c2)CC1`, the Potency was inconclusive: 7.94 µM [inhibitor, partial curve]. In the case of `Cc1ccccc1CN1C(=O)C(O)(CC(=O)c2cccc(Br)c2)c2ccccc21` (configuration not stated), the Potency is reported as inconclusive: 11.2 µM [inhibitor, partial curve, poor fit]. For `CCn1cc([N+](=O)[O-])c(C(=O)N2N=C(c3ccccc3)CC2c2ccc([N+](=O)[O-])cc2)n1` (configuration not stated), the Potency was inconclusive: 11.2 µM [inhibitor, partial curve]. `Oc1ccccc1/C=N/Nc1cccc2cccnc12` was tested, and the Potency was inconclusive: 11.2 µM [inhibitor, partial curve]. With `O=C(Nc1ccc2nsnc2c1)N1CCCCC1` the Potency was inconclusive: 22.4 µM [inhibitor, partial curve]. For `CCOC(=O)CSc1nnc(CSc2nc(C)cc(C)n2)n1Cc1ccco1`, the “activity, negative = inhibition” value was inactive: -13.2%. In the case of `Cc1[nH]c2ccccc2c1CN1CCc2ccccc2C1`, the Potency is reported as inconclusive: 28.2 µM [inhibitor, partial curve]. For `CCc1ccccc1NC(=O)c1ccc2[nH]c(C)c(C)c2c1`, the Potency was inconclusive: 11.2 µM [inhibitor, partial curve]. For `CN1CCN(NC(=O)CN2C(=O)/C(=C/c3ccccc3F)SC2=S)CC1`, the Potency was inconclusive: 31.6 µM [inhibitor, partial curve]. In the case of `O=[N+]([O-])c1ccc(N2CCCCC2)cn1`, the Potency is reported as inconclusive: 12.6 µM [inhibitor, partial curve]. `Cc1cc(C)n(-c2nc(-c3cccc(Cl)c3)cs2)n1` was tested, and the Potency was inconclusive: 12.6 µM [inhibitor, partial curve]. With `Cc1cccc(C(=O)Nc2nnc(S(=O)(=O)N3c4ccccc4CC3C)s2)c1` (configuration not stated) the Potency was inconclusive: 15.8 µM [inhibitor, partial curve]. For `CCc1ccc2c(c1)C1(C(=O)N2)N2CCCC2C(C(=O)c2ccc3ccccc3c2)C12C(=O)Nc1ccccc12` (configuration not stated), the Potency was inconclusive: 14.1 µM [inhibitor, partial curve]. For `S=c1nc(-c2ccccc2Cl)n(Cc2cccnc2)c2c1CCCC2`, the “activity, negative = inhibition” value was inactive: 5.15%. With `COc1ccc(Br)cc1CNC(=O)c1ccc(-n2c(C)cc3c2CCC(C)C3)cc1` (configuration not stated) the Potency was inconclusive: 28.2 µM [inhibitor, partial curve]. With `Cc1ccc(Nc2nnc(SCC(=O)c3cc4ccccc4o3)s2)cc1C` the Potency was inconclusive: 5.62 µM [inhibitor, partial curve]. With `CCOC(=O)C1CCN(C(c2cccnc2)c2c(NC(=O)c3ccco3)sc(C)c2C)CC1` (configuration not stated) the Potency was inconclusive: 10 µM [inhibitor, partial curve]. With `COc1ccc(OCC(=O)N2CCN(c3nnc(-c4ccc(C)cc4)c4ccccc34)CC2)cc1` the “activity, negative = inhibition” value was inactive: -12.2%. `CC(C)(C)c1nn(-c2ccccc2)c2[nH]c(=O)c(CNc3ccc4c(c3)OCCO4)cc12` was tested, and the Potency was inconclusive: 35.5 µM [inhibitor, partial curve]. `O=[N+]([O-])c1ccc(N/N=C2/CCCCC2c2ccccn2)cc1` (configuration not stated) was tested, and the Potency was inconclusive: 15.8 µM [inhibitor, partial curve]. For `Cc1[nH]n(-c2ccc([N+](=O)[O-])cc2)c(=O)c1C=NCCN1CCN(C(=O)c2ccc(Br)cc2)CC1`, the Potency was inconclusive: 12.6 µM [inhibitor, partial curve]. In the case of `O=C(OCc1nnc(-c2ccccc2)o1)C1CC(=O)N(Cc2ccco2)C1` (configuration not stated), the Potency is reported as inconclusive: 7.94 µM [inhibitor, partial curve]. In the case of `COc1ccc(Nc2cc(C(=O)NCCCN(C)C3CCCCC3)c3ccccc3n2)cc1`, the Potency is reported as inconclusive: 12.6 µM [inhibitor, partial curve]. For `CCn1c(SCC(=O)c2ccc3ccccc3c2)nnc1-c1cccs1`, the Potency was inconclusive: 7.94 µM [inhibitor, partial curve]. For `Cc1ccc(CN(Cc2cccnc2)C(=O)CN2C(=O)COc3ccccc32)o1`, the Potency was inconclusive: 39.8 µM [inhibitor, single point]. `CCOC(=O)c1c(C)[nH]c(C(=O)COC(=O)CCSc2ccccc2)c1C` was tested, and the Potency was inconclusive: 10 µM [inhibitor, partial curve]. With `O=C1CNC(=O)/C(=C/c2ccco2)N1` the Potency was inconclusive: 22.4 µM [inhibitor, single point]. For `O=[N+]([O-])c1cnc(Sc2ccncn2)s1`, the Potency was inconclusive: 4.47 µM [inhibitor, full curve]. With `Nc1cc(N)c(OCC(F)(F)F)cc1OCC(F)(F)F` the Potency was active: 3.16 µM. In the case of `NC(CO)C12CC3CC(CC(C3)C1)C2` (configuration not stated), the “activity, negative = inhibition” value is reported as inactive: 4.92%. `CCOc1cc(/C=C2/COc3ccccc3C2=O)ccc1OCC(=O)N(C)C` was tested, and the Potency was inconclusive: 11.2 µM [inhibitor, partial curve]. For `COC(=O)c1c(-c2ccc(C(C)(C)C)cc2)csc1NC(=O)C1C2CCC(O2)C1C(=O)O` (configuration not stated), the Potency was inconclusive: 25.1 µM [inhibitor, single point]. For `CC1CCCC(C)N1C(=O)CSc1nnc(CSc2ncccn2)n1C` (configuration not stated), the “activity, negative = inhibition” value was inactive: -3.86%.
